The results in this text go back to ChEMBL document CHEMBL5606460, “ASAP - DENV-2 NS2B-NS3 protease fluorescence single point” (2024).

In the assay the target is Genome polyprotein (dengue virus type 2) (UniProt P29990).
Where [1] appears, read: Thailand/16681/1984, Concentration 25.0 uM, Number of replicates 1.0.

Each structure is given as a SMILES string. In all, about 2,000 compounds went through this assay and about 110 (5.5%) showed an effect of 50% or more. The list shows a part of the results.

Turning to `CC(C)N(Cc1cnn(C)c1)C(=O)C1CCN(c2ccc(C=O)cc2)CC1`, the inhibition under setting [1] turned out to be 13.4%.
For the molecule `CCCC[C@H](NC(C)=O)C(=O)N[C@@H](C(=O)NCc1ccc(C(N)=O)cc1)c1ccc(OCc2ccccc2)cc1`, the inhibition runs as follows: (Thailand/16681/1984, Concentration 49.5 uM, Number of replicates 2.0, Standard deviation 1.1393107429607887 %) -2.14%; (Thailand/16681/1984, Concentration 99.01 uM, Number of replicates 2.0, Standard deviation 1.3468928227151291 %) -2.15%; (Thailand/16681/1984, Concentration 198.0 uM, Number of replicates 2.0, Standard deviation 1.6817028564994563 %) -0.786%.
With `O=C1C[C@@H](NS(=O)(=O)c2ccc(Oc3ccccc3Cl)cc2)CCN1`, the inhibition runs as follows: (Thailand/16681/1984, Concentration 49.5 uM, Number of replicates 2.0, Standard deviation 1.1905021365747266 %) -5.52%; (Thailand/16681/1984, Concentration 99.01 uM, Number of replicates 2.0, Standard deviation 1.0784606403673063 %) -3.29%; (Thailand/16681/1984, Concentration 198.0 uM, Number of replicates 2.0, Standard deviation 1.453680839379123 %) -1%.
Turning to `Cc1cc(CO)c2cccc(Cc3ccccc3NC(=O)c3cnn(Cc4c(C)noc4C)c3)c2n1`, the inhibition by setting is: (Thailand/16681/1984, Concentration 49.95 uM, Number of replicates 2.0, Standard deviation 1.6720482568376416 %) 3.34%; (Thailand/16681/1984, Concentration 99.9 uM, Number of replicates 2.0, Standard deviation 1.804289051662393 %) 5.99%.
`O=C(Nc1ccc(Cl)c2cccnc12)c1cnccn1`: the inhibition is, setting by setting: (Thailand/16681/1984, Concentration 49.95 uM, Number of replicates 2.0, Standard deviation 4.683142014666169 %) -9.23%; (Thailand/16681/1984, Concentration 99.9 uM, Number of replicates 2.0, Standard deviation 6.492893297895574 %) -7.9%.
Regarding `C[C@H]1CN(C(=O)C2CCN(c3ccc(C=O)cc3)CC2)CCN1C(=O)OC(C)(C)C`, the inhibition under setting [1] came out at 11%.
The same measure, in the same setting: the figure for `O=Cc1ccc(N2CCC(C(=O)NCc3c(F)cccc3C(F)(F)F)CC2)cc1` is 15%.
For `N[C@@H](Cc1ccc2ccccc2n1)C(=O)O`, the inhibition (Thailand/16681/1984, Concentration 49.95 uM, Number of replicates 2.0, Standard deviation 1.7233273158964821 %) is -3.46% and the inhibition (Thailand/16681/1984, Concentration 99.9 uM, Number of replicates 2.0, Standard deviation 1.4667685751237545 %) was -2.8%.
As for `O=C1NCCN(S(=O)(=O)c2ccc(Oc3ccccc3Cl)cc2)c2cc(F)c(F)cc21`, the inhibition reads like this: (Thailand/16681/1984, Concentration 49.5 uM, Number of replicates 2.0, Standard deviation 0.05491442625752456 %) 0.056%; (Thailand/16681/1984, Concentration 99.01 uM, Number of replicates 2.0, Standard deviation 1.2458412858443186 %) 1.93%; (Thailand/16681/1984, Concentration 198.0 uM, Number of replicates 2.0, Standard deviation 0.56729017463566 %) 6.51%.
Turning to `CNC(=O)c1cc(Cl)ccc1NS(=O)(=O)c1nccn1C`, the inhibition (Thailand/16681/1984, Concentration 49.5 uM, Number of replicates 2.0, Standard deviation 3.5638444498396873 %) was -8.35%.
With `CC(C)CN1CC[C@H](CNC(=O)C2CCN(c3ccc(C=O)cc3)CC2)C1`, the inhibition under setting [1] is 8.27%.
For the molecule `O=Cc1ccc(N2CCC(C(=O)NCCc3ccc(O)c(O)c3)CC2)cc1`, under setting [1], the inhibition is 41.1%.
Turning to `CC1CCN(CCCCNC(=O)C2CCN(c3ccc(C=O)cc3)CC2)CC1`, under setting [1], the inhibition was found to be 13.7%.
Still for that read-out and setting: the figure for `O=Cc1ccc(N2CCC(C(=O)N3CCN(c4ccc(Br)cn4)CC3)CC2)cc1` is -2%.
For `CCOc1ccccc1-c1cccc2c(N)ccnc12`, the inhibition runs as follows: (Thailand/16681/1984, Concentration 49.95 uM, Number of replicates 2.0, Standard deviation 5.626680540926734 %) -3.85%; (Thailand/16681/1984, Concentration 99.9 uM, Number of replicates 2.0, Standard deviation 6.306982453295959 %) -3.22%.
`CCN(Cc1cc(Br)ccc1F)C(=O)C1CCN(c2ccc(C=O)cc2)CC1`: the inhibition under setting [1] was 15.9%.
In the case of `O=Cc1ccc(N2CCC(C(=O)NC3CCN(CC(=O)NC4CC4)CC3)CC2)cc1`, the inhibition under setting [1] is 15.3%.
Take `O=S(=O)(Nc1ccc(Oc2ccccc2Cl)cc1)c1c[nH]c2ccc(Cl)cc12`: the inhibition turned out to be 4.45% (Thailand/16681/1984, Concentration 49.5 uM, Number of replicates 2.0, Standard deviation 1.0638417530802116 %); 7.95% (Thailand/16681/1984, Concentration 99.01 uM, Number of replicates 2.0, Standard deviation 0.5497119042335245 %); 46.3% (Thailand/16681/1984, Concentration 198.0 uM, Number of replicates 2.0, Standard deviation 4.968033131413375 %).
`Cc1cc(Br)cc(NC(=O)C2CCN(c3ccc(C=O)cc3)CC2)c1`: the inhibition under setting [1] stood at 13.7%.
`N#Cc1cccc(-c2nc3c(C(=O)NCc4ccccn4)cc(Cl)cc3[nH]2)c1`: the inhibition was -1.93% (Thailand/16681/1984, Concentration 99.5 uM, Number of replicates 2.0, Standard deviation 0.024300186977441064 %) and 5.47% (Thailand/16681/1984, Concentration 295.6 uM, Number of replicates 2.0, Standard deviation 0.2349015826654049 %).
For `O=Cc1ccc(N2CCC(C(=O)Nc3c(Br)cncc3[N+](=O)[O-])CC2)cc1`, the inhibition under setting [1] came out at 13.2%.
With `CNC(=O)c1cc(C#N)ccc1NS(=O)(=O)c1ccc(Oc2ccccc2Cl)cc1`, the inhibition runs as follows: (Thailand/16681/1984, Concentration 49.5 uM, Number of replicates 2.0, Standard deviation 0.4271842721165937 %) 49.4%; (Thailand/16681/1984, Concentration 99.01 uM, Number of replicates 2.0, Standard deviation 0.14972718509713318 %) 88.8%; (Thailand/16681/1984, Concentration 198.0 uM, Number of replicates 2.0, Standard deviation 0.1152868035427591 %) 94%.
Regarding `CN(Cc1nc2ccccc2n1C)C(=O)C1CCN(c2ccc(C=O)cc2)CC1`, the inhibition under setting [1] is 14.9%.
`O=Cc1ccc(N2CCC(C(=O)NCCOc3ccccc3Cl)CC2)cc1`: under setting [1], the inhibition amounted to 12.6%.
On to `O=C1c2c(O)ccc([N+](=O)[O-])c2C(=O)c2c([N+](=O)[O-])ccc(O)c21`, for which the inhibition was 5.08% (Thailand/16681/1984, Concentration 50.0 uM, Number of replicates 2.0, Standard deviation 4.5365390911554515 %) and 27.8% (Thailand/16681/1984, Concentration 100.0 uM, Number of replicates 2.0, Standard deviation 14.84324878588446 %).
Consider `CN(C(=O)C1CCN(c2ccc(C=O)cc2)CC1)[C@H]1CS(=O)(=O)C[C@@H]1O`, for which, under setting [1], the inhibition worked out at 12.1%.

In general, inhibition refers to the relative decrease from the control value, in per cent.
